According to article PMC6387754, “Dual mechanism of TRKB activation by anandamide through CB1 and TRPV1 receptors” (PeerJ, 2019):

Biological target: T1, CB1 receptor (rat (endogenous in primary cortical …, UniProt P20272))
T1 construct: cannabinoid receptor CB1, endogenous in rat primary cortical cells; precipitated with anti-CB1; source: endogenous, lysate of primary cortical cultures of E18 rat embryos (DIV8)
Assay: co-IP; lysates of DIV8 rat cortical cultures (lysis buffer with 1% NP-40, 137 mM NaCl) incubated overnight at 4 °C with anti-CB1 or anti-TRKB (1 µg antibody / 500 µg total protein), Protein G-sepharose, washed 3 times; blot with anti-TRPV1; no-antibody negative control; TRPV1 precipitated with anti-TRPV1 as total
Details: partners not purified

B1: vanilloid receptor TRPV1 (receptor)
chain: not shown
notes: TRPV1 (vanilloid receptor, VR1), endogenous in rat primary cortical cells; band at 100 kDa on the blot; also called VR1; source: endogenous, lysate of primary cortical cultures of E18 rat embryos (DIV8)
  ratio of CB1-coupled TRPV1 compared to total TRPV1: 27%
